{"source": "the supplement of paper PMC11417369", "note": "The list shows a part of the results.", "data": [{"tested_on": "PF3D7_0420300 AP2 domain 1 (GST-tagged)", "test": "gcPBM binding intensity (ln(normalized median fluorescence intensity)); higher = stronger DNA binding", "how_it_was_run": "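After 1 h on an Agilent 4 × 180k array of primer-extended double-stranded 36-bp intergenic genomic probes and negative controls, bound GST-tagged P. falciparum DNA-binding domains were detected with Alexa488 anti-GST antibody and scanned at 488 nm. The domains had been expressed in E. coli, and binding took place in 1× PBS with 1% milk, 0.2 mg/ml BSA, 0.5% salmon testes DNA and 0.03% Triton X-100. Binding intensity is the highest Masliner-normalised natural-log median intensity across replicate spots of either probe orientation.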", "values": [{"sequence": "CTGTAAAATGTGATGGTGCATATTAATTTAGTTGTA", "gcPBM binding intensity (ln)": 9.41}, {"sequence": "ATTTATTTCAATAAACTTCTTTTCTTTAACAATTAC [CACACA_negctrl_site1222]", "gcPBM binding intensity (ln)": 9.08}, {"sequence": "TATAAAAATGTGTATGTACACACTTTATTTTTAATA [CACACA_site2532]", "gcPBM binding intensity (ln)": 9.24}, {"sequence": "AAATATAAAAATAGCACACATATATACATATATATA [CACACA_site56]", "gcPBM binding intensity (ln)": 9.52}, {"sequence": "TGTCCAATTTTTTATCGTACATAATATATAAATAAA [XGTACX_site1705]", "gcPBM binding intensity (ln)": 9.16}, {"sequence": "AGTATTTCCATATGTACATGCAAAAGGAAAGATATA [TGCATGCA_site850]", "gcPBM binding intensity (ln)": 9.15}, {"sequence": "TATTTTTCCCTATGCACACACACCGTATATATAATA [CACACA_site4758]", "gcPBM binding intensity (ln)": 10}, {"sequence": "AGAAACGTAAGTTATACACACATGTCAAAAGAAAAA [CACACA_site312]", "gcPBM binding intensity (ln)": 9.51}, {"sequence": "AAAAAAAAAAGACACACACACAAATACAAATACATA [CACACA_site6334]", "gcPBM binding intensity (ln)": 10}, {"sequence": "TTTTAAACAAAAAATTGTACAATTAGTGTATAATCC [XGTACX_site778]", "gcPBM binding intensity (ln)": 9.19}, {"sequence": "AAAGGAAATTAAAATTGATTACATATATAAAAAAAC [XGTACX_negctrl_site196]", "gcPBM binding intensity (ln)": 9.4}, {"sequence": "AATTTAATATAATGCACACATAAAAAAAAAAAAAAA [CACACA_site123]", "gcPBM binding intensity (ln)": 9.21}, {"sequence": "CCAAAGAAATATAATACACACAAGAATATATTGGAT [CACACA_site6018]", "gcPBM binding intensity (ln)": 9.75}, {"sequence": "AATGAAAAATGTATCGTTAAAGGGTATCTTAAGGAT [XGTACX_negctrl_site222]", "gcPBM binding intensity (ln)": 9.36}, {"sequence": "AAGTATTACAACCACACACACACCTATATATTATAT [CACACA_site4158]", "gcPBM binding intensity (ln)": 10.1}, {"sequence": "ACTTGTTTTCAATGTAAAATACAATTTTCATTTATT [CACACA_negctrl_site435]", "gcPBM binding intensity (ln)": 9.18}, {"sequence": "ATTTAAGGGGTGTATGCACACGACTATTCCGTATGA [CACACA_site4738]", "gcPBM binding intensity (ln)": 9.19}, {"sequence": "AATATTTTAAGGCACACACACAAAAAAAAAAAAAAA [CACACA_site2890]", "gcPBM binding intensity (ln)": 9.55}, {"sequence": "TAATTTAGTATCTTTACATGCGGGCATTATGTCATA [TGCATGCA_site167]", "gcPBM binding intensity (ln)": 9.08}, {"sequence": "TTTATTAATAGACACACACACACACGCAAAATAAAA [CACACA_site6255]", "gcPBM binding intensity (ln)": 10.2}, {"sequence": "ATAGGCACTTTTTGCACACGTATGAATAACAAAATA [CACACA_site5069]", "gcPBM binding intensity (ln)": 9.25}, {"sequence": "TGAAAATTTTAATGAGGAAATAAAATAAATATAATA [GTGCAC_negctrl_site159]", "gcPBM binding intensity (ln)": 9.14}, {"sequence": "CCAAAGGGGGTATACTGTACATATAGTGGTTATATA [XGTACX_site1515]", "gcPBM binding intensity (ln)": 9.66}, {"sequence": "CTTTATTATAAGATTACACACATGTGTTATAATTTA [CACACA_site3169]", "gcPBM binding intensity (ln)": 9.39}]}]}
